Data as given in article PMC4336329 (PLoS ONE, 2015).
The whole screen tested about 310,000 compounds, of which about 14,000 (4.5%) showed an effect of 50% or more. The effect is printed as a negative number. Some of the results follow.

Biological target: human ether-à-go-go-related gene (hERG) potassium channel (human, UniProt Q12809)
Assay: primary screen, population patch clamp on CHO cells stably expressing hERG
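Note: peak tail current of the secondary pulse compared with the same well before compound.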

human ether-à-go-go-related gene (hERG) potassium channel, sequence (Q12809 whole entry, looked up): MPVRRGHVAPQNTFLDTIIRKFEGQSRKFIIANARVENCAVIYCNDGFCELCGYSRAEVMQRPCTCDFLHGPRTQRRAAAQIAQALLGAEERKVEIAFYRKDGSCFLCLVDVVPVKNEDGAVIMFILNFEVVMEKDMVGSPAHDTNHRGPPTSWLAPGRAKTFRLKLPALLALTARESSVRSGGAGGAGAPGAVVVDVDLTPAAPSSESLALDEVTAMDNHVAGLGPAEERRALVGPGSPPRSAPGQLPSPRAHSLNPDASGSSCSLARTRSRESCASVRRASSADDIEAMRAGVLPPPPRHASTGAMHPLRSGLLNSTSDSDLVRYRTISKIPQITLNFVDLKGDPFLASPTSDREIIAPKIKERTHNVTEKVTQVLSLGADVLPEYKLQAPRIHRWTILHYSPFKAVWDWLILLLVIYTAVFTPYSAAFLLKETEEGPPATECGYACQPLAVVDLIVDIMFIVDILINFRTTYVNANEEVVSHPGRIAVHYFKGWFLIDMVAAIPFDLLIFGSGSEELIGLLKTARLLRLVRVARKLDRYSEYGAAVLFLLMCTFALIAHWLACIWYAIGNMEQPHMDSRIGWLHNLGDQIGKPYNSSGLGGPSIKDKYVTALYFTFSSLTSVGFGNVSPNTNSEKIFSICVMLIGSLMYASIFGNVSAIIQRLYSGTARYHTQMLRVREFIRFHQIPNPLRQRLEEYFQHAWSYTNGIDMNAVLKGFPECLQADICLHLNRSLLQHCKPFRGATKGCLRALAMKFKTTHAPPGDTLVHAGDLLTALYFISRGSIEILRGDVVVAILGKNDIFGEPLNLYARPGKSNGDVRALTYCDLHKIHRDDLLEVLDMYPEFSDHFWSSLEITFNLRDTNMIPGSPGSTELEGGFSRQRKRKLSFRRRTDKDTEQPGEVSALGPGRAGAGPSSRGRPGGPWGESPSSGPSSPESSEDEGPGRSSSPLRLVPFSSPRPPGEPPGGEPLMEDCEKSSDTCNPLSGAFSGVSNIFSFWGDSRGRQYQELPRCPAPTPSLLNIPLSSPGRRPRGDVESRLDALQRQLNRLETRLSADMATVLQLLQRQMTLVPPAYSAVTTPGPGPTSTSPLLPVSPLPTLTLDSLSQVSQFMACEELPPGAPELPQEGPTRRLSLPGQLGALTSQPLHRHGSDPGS

SMILES	hERG current change (%, negative = inhibition) at 10uM [%]
Cc1ccc(/C=c2/sc3nnc(-c4ccccc4Cl)n3c2=O)o1	-32.9
CN(C)S(=O)(=O)Oc1ccc(C(=O)Nc2cccc(Cl)c2)cc1	21.9
Cc1ccc(S(=O)(=O)Cn2nnnc2C(c2ccc(F)cc2)N2CCCCC2)cc1 (stereo not drawn)	-3.43
O=C(CN(CCc1ccccc1)S(=O)(=O)c1ccc(Cl)cc1)N/N=C/c1ccc2c(c1)OCO2	-2.68
COc1ccc(CSc2nc(N3CCOCC3)c3c(c2C#N)CC(C)(C)OC3)cc1	-14.5
Cc1cc(C)n(-c2nc3ccccc3c(=O)n2OCC(=O)Nc2c(C)cccc2C)n1	5.42
N#Cc1ccc(/C=C/C(=O)O)cc1	23.2
CC1(C)CC(NC(=S)NC2CC2)CC(C)(C)N1	15.4
O=C(OCc1ccccn1)C1CCN(C(=O)c2ccc(Cl)cc2)CC1	-36
CCC(c1n[nH]c(=S)n1-c1ccccc1)N(C)C (stereo not drawn)	17.6
Cc1cc(Br)c(NC(=O)C(C)Sc2nnnn2C)c(Br)c1 (stereo not drawn)	7.7
O=P(O)(O)COc1ccccc1O	8.87
CC12CCC(C(=O)N3CCOCC3)([C@H](Br)C1=O)C2(C)C (stereo partly drawn)	15.6
CC(=O)Nc1ncnc2c1c(-c1ccc(Cl)cc1)nn2C(C)(C)C	1.91
COc1c2ccc(C(=O)NCCCCc3ccccc3)cc2nn1C	-6.65
CNC(=O)NC(=O)COC(=O)/C=C/c1cccc(Br)c1	17.6
CC1=CCC(C(=O)O)C(C(=O)NC2CCCCC2)C1 (stereo not drawn)	16.7
CCOc1ccccc1Oc1coc2cc(OC(=O)N(C)C)ccc2c1=O	16.2
O=C(Nc1ccc2c(c1)C(=O)N(CC1CCCO1)C2=O)c1ccc(Cl)c(Cl)c1 (stereo not drawn)	-11.6
CN(Cc1cccs1)C(=O)Cn1cnc2cc([N+](=O)[O-])ccc2c1=O	14.1
O=C(Cc1cnc2ncnn2c1)N1CCc2c([nH]c3ccccc23)C1c1ccccn1 (stereo not drawn)	-30.9
O=C(NCCN1CCOCC1)c1cc(Sc2cccc(Cl)c2)nc2ccccc12	-77.2
COc1cc(NC(=O)c2ccc3c(c2)OCCO3)ccc1NC(=O)c1cccs1	-9.8

SMILES	hERG current change (%, negative = inhibition) at 10uM [%]
Cc1cccc(C(=O)N/N=C/c2ccc[nH]2)c1	12.1
CC(C)c1ccc(C2CC(c3ccc(Br)cc3)=NN2C(N)=S)cc1 (stereo not drawn)	14.7
O=C(Nc1ccc(NC(=O)c2ccco2)cc1)c1ccco1	10.6
Cc1csc2nc(CNS(=O)(=O)N(C)C)cn12	-2.66
Cc1cccn2c(CN(C)CC3Cc4ccccc4O3)c(C(=O)N3CCCCC3)nc12 (stereo not drawn)	-25.5
COc1ccc(NC(=O)C2=NNC(=O)CC2)cc1S(=O)(=O)N1CCCCC1	-8.63
O=C(CN1CCN(c2ccccc2)CC1)Nc1ccc(OCc2ccccc2)cc1	2.44
Cc1cccc(N(Cc2ccccc2)C(=O)c2cccc(S(=O)(=O)N3CC(C)OC(C)C3)c2)c1 (stereo not drawn)	-9.56
COc1ccc(NC(=O)Nc2ccc3nccnc3c2)cc1	2.71
O=C(O)C(Cc1ccccc1-c1ccccc1)C(=O)O	13.4
CC(=O)Nc1ccc(Oc2ccccc2)cc1	-2.02
Cc1sc(NC(=O)c2sc3nc4c(C)cccc4cc3c2N)c(C#N)c1C	8.29
CC(NS(=O)(=O)c1ccccc1)C(=O)Nc1ccc(S(N)(=O)=O)cc1 (stereo not drawn)	9.52
CN1CCN(S(=O)(=O)c2ccc(NC(=O)c3ccc([N+](=O)[O-])cc3)cc2)CC1	-48.6
O=C(c1ccccc1)N1CCCCC(Sc2nnnn2-c2ccccc2)C1=O (stereo not drawn)	-27.4
CSc1nc(N(C)C)nc(N(C)C#N)n1	7.32
CC1(C)CCCC2=C1CC1C(=O)N(N)C(=O)C1C2 (stereo not drawn)	5.96
Cc1cc(OCC(O)CN2CCc3ccccc3C2)ccc1Cl.Cl (stereo not drawn)	-53.4
CCN1C(=O)N[C@H](c2ccccc2)C(C(C)=O)=C1C	8.38
N#Cc1ccc(-c2nnnn2-c2ccc3c(c2)OCO3)cc1	-18.5
CC1(C)Cc2c(cnn2-c2ccc(F)cc2)C(NC(=O)CCN2CCCCC2=O)C1 (stereo not drawn)	14.8
CCc1nnc(NC(=O)CN2C(=O)/C(=C/c3ccc(OC)c(OC)c3)SC2=S)s1	0.819
Cc1ccc(C2CCN(C(=O)Nc3ccccc3)C2)cc1 (stereo not drawn)	-6.4

SMILES	hERG current change (%, negative = inhibition) at 10uM [%]
CCOC(=O)C(C)Oc1cccc2c(=O)n(CC(=O)NCCc3ccccc3)ccc12 (stereo not drawn)	-10.3
Cc1cc2nnc(SCC(=O)Nc3cc(S(=O)(=O)N4CCOCC4)ccc3Cl)n2c2ccccc12	-20.5
CCN(CC)c1ccc(C(=S)NC2CCCCC2)cc1	12.6
Cc1ccc(C)c(Cn2c(=O)n(CCC(=O)NCc3ccco3)c(=O)c3ccccc32)c1	-14.1
CC1CC(=O)Nc2ccccc2N1S(=O)(=O)c1ccc(C(F)(F)F)cc1 (stereo not drawn)	11.2
C[N+](C)(N)CCOC(=O)C(O)(c1ccccc1)C1CCCCC1.[Br-] (stereo not drawn)	-21.4
O=C(c1ccc(CN2CCOCC2)cc1)N1CCC(Cc2ccccc2)CC1	-3.35
CCOc1ccc(NC(=O)Cn2c(=O)oc3cc(Cl)ccc32)cc1	14.6
O=C(NCCC1=CCCCC1)N[C@@H](Cc1ccccc1)C(=O)O	7.41
CN1CCN(C(=O)C(Cc2ccccc2)NS(=O)(=O)c2ccc3c(c2)CCC(=O)N3)CC1 (stereo not drawn)	-3.56
COC(=O)c1ccc(S(=O)(=O)N2CCN(C(c3ccccc3)c3ccccc3)CC2)n1C	3.6
COc1cc(C(=O)NC(=S)NNC(=O)c2ccc3c(c2)OCO3)cc(OC)c1OC	8.08
Cc1ccc(/C=C(\C#N)C(=O)Nc2c(C)cccc2C)s1	-1.03
CC1(C)CC(=O)C(C=NCCN2CCN(C(=O)CCl)CC2)=C(O)C1	7.59
CCCCn1c(SCC2CCCO2)nc2cc(S(N)(=O)=O)ccc21 (stereo not drawn)	-43.1
O=C(CCc1ccccc1)NCc1ccc2c(c1)OCO2	4.27
CC(C)Oc1nc(-c2ccccc2Cl)nc2ccccc12	19.1
CCN(CC(=O)NCc1cccs1)C(=O)COc1ccccc1C#N	-6.06
CC1CCN(C(=O)c2[nH]cnc2C(=O)Nc2ccc(Cl)cc2)CC1	20.7
COc1ccc(C(=O)CSc2nc(SC)ns2)cc1OC	3.84
CC(=O)Nc1ccc(S(=O)(=O)N(C)c2nc3ccccc3nc2Cl)cc1	-24.8
Cc1ccc(S(=O)(=O)N2CCCC2=O)c(C)c1N(C)S(C)(=O)=O	6.49
CCNC(=S)N/N=C/c1cccc(/C=N/NC(=S)NCC)c1	21.5

SMILES	hERG current change (%, negative = inhibition) at 10uM [%]
O=C(CCc1nc2ccccc2c(=O)[nH]1)Nc1ccc(F)c([N+](=O)[O-])c1	-26.7
COc1c(/C=C2/C(=O)NC(=O)N(C)C2=O)c(CCN(C)C(=O)c2ccccc2)cc2c1OCO2	7.3
CCOC(=O)C1=C(C)NC(C)=C(C(=O)OCC)C1c1ccc(Br)o1	-5.54
CC(C)c1c(C(=O)N/N=C/c2cccc(OCc3ccc(F)cc3)c2)nnn1-c1nonc1N	24.9
N#CCCn1cc(C(=O)O)c(-c2cccs2)n1	36.2
CCOC(=O)C1=C(O)CCn2c1nc1ccccc12	-6.92
CSc1nc2ccccc2n1C(=O)Oc1ccccc1	-4.58
CC(=O)Nc1ccc(NC(=O)C2CCN(C(=O)NC3CCCCC3)CC2)cc1	16
O=C(Nc1cccc(O)c1)c1cnn2cccnc12	-1.77
Cn1cccc1Cc1nnc(SCC(=O)Nc2cccc(Cl)c2)n1-c1ccc(F)cc1	-46
COc1cc(O)c2c(c1)COC2=O	5.36
Cc1ccc(C(=O)Nc2cccc(-c3ccc(N4CCOCC4)nn3)c2)cc1	-3.27
Cc1cc(-c2nnnn2-c2cc(Cl)cc(Cl)c2)no1	6.06
Cc1ccc(C(=O)NC2CC3CCC(C2)N3)cc1 (stereo not drawn)	28.8
Cc1ccc(CNC(=O)CCC2CCCN(Cc3cccc4cccnc34)C2)o1 (stereo not drawn)	-66
Cc1cccc(C(=O)c2c[nH]cc2-c2ccccc2)c1	1.28
O=C(CSc1nc2ccccc2c(=O)n1NC(=O)Cc1ccccc1)NCCc1ccccc1	-14.6
Cl.O=S(=O)(CCC1CCCCN1)c1ccccc1 (stereo not drawn)	8.11
O=c1oc(Cc2ccccc2)nc2ccccc12	27.2
CCCCn1c(SCC(=O)N2CCCC2)nc2cc(S(N)(=O)=O)ccc21	9.3
COc1ccc(Nc2ncccc2C(=O)Nc2ccccc2)cc1	-9.63
